Assay in all cases: protein-binding microarray (PBM)
Conditions in all cases: PBM: ~300 nM protein, 6 mM HEPES pH 7.8, 80 mM KCl, 0.5 mM EDTA, 0.5 mM EGTA, 6% glycerol, 35 ng/ul poly-dIdC, 1% milk, 1 h, room temperature; Ap Aiptasia and Nv Nematostella (sea anemones) / Co Capsaspora / Aq Amphimedon (sponge) / Dm Drosophila / Hu human; RHD is the Rel homology domain; high values mean tight binding; most listed sequences are background and not binding sites; double strand, one strand shown

Test [1] deals with T1, GST-Ap-NF-kB RHD (UniProt A0A913YAJ5).
T1 sequence: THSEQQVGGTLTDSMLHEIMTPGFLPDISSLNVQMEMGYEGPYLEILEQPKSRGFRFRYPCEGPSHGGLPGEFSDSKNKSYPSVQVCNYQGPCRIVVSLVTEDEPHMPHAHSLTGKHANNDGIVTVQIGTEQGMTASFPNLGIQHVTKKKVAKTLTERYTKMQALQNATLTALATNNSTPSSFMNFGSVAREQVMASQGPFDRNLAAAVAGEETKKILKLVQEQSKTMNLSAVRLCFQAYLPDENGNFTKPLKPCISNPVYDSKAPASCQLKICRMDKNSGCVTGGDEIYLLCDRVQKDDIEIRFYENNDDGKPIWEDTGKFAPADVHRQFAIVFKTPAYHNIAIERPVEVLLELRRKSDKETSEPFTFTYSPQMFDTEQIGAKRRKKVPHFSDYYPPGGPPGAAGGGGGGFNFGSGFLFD

Test [2] concerns the target T2, GST-Nv-NF-kB (Cys allele) (UniProt E5G601).
T2 sequence: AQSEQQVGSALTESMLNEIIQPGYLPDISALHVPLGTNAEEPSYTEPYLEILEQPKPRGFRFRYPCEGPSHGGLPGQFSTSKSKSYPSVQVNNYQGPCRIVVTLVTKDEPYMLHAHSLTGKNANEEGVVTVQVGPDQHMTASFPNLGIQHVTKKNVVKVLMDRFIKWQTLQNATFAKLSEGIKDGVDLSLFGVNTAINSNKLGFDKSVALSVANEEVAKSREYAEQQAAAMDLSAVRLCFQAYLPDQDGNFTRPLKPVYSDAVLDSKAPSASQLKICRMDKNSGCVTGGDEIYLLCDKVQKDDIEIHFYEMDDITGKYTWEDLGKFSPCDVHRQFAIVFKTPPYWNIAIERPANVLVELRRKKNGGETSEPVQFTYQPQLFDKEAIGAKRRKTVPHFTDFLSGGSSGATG

In test [3] the target is T3, GST-Co-NF-kB (UniProt F1ARL5).
T3 sequence: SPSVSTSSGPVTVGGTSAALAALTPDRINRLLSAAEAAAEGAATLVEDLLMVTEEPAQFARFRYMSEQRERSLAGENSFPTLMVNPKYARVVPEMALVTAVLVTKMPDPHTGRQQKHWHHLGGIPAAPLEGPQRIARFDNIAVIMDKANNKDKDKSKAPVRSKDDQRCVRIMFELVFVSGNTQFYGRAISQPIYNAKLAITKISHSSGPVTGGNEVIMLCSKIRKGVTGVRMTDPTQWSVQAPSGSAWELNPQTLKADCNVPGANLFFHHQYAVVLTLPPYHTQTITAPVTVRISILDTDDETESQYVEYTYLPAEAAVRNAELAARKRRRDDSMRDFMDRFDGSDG

Test [4] deals with T4, GST-Dm-Relish (UniProt Q94527).
T4 sequence: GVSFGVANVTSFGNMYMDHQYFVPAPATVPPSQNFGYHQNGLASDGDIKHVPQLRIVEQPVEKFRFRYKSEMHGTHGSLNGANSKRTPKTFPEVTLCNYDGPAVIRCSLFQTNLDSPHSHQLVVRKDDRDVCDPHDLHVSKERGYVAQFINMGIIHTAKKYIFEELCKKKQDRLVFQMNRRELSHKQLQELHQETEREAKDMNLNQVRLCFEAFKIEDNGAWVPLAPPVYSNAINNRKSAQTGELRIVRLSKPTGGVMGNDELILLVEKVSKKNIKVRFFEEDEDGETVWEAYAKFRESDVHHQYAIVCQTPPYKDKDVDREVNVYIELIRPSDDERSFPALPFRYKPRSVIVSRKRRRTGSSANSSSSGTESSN

The target of test [5] is T5, GST-Aq-NF-kB (UniProt A9Y5G7).
T5 sequence: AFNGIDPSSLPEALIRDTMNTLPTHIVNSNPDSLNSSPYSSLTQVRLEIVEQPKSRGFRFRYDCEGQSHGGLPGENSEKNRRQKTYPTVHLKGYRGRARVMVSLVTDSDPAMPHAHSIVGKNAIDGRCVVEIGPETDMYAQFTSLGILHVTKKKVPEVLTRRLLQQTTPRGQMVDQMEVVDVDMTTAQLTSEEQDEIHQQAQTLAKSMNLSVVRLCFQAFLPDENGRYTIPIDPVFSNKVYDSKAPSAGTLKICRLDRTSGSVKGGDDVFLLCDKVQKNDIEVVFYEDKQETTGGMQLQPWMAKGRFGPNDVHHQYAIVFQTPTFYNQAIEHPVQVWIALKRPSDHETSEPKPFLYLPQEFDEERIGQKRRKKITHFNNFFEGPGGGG

This passage reports binding signal results from PMC5700166.

This is a selection; strong and weak results do not stand in their true shares. The list includes weakly bound sequences.

With “CCGATTAACATCAAAGATTTTCCTGATGTTAATCGGGTCTTGATTCGCTTGACGCTGCTG”, the binding signal in test [1] was 0.0165 z-score; in test [2] it was 0.00981 z-score; in test [3] it was 0.598 z-score; in test [4], -0.0291 z-score; in test [5], 0.713 z-score.

Consider “CCGATTAACATCAGCATACCGAGTGATGTTAATCGGGTCTTGATTCGCTTGACGCTGCTG”, for which the binding signal in test [1] is -0.0672 z-score; in test [2], -0.179 z-score; in test [3], 0.186 z-score; in test [4], -0.736 z-score; in test [5], -0.401 z-score.

With “CCGATTAACATCACGGGCATGTATGATGTTAATCGGGTCTTGATTCGCTTGACGCTGCTG”, the binding signal in test [1] is -0.196 z-score; in test [2], -0.131 z-score; in test [3], -0.292 z-score; in test [4] it was 0.139 z-score; in test [5] it was -0.0637 z-score.

As for “CCGATTAACATCACAATAGGCGATGATGTTAATCGGGTCTTGATTCGCTTGACGCTGCTG”, the binding signal is -0.355 z-score in test [1]; -0.2 z-score in test [2]; 0.114 z-score in test [3]; 0.125 z-score in test [4]; -0.114 z-score in test [5].

As to “CCGATTAACATCAATCGGTAAGTTGATGTTAATCGGGTCTTGATTCGCTTGACGCTGCTG”, the binding signal in test [1] is -0.755 z-score; in test [2], -0.132 z-score; in test [3], -0.152 z-score; in test [4] it was -0.329 z-score; in test [5], -0.113 z-score.

With “CCGATTAACATCATCAAGTGCAGTGATGTTAATCGGGTCTTGATTCGCTTGACGCTGCTG”, the binding signal was -0.705 z-score in test [1]; 0.00254 z-score in test [2]; -0.437 z-score in test [3]; 0.119 z-score in test [4]; -0.268 z-score in test [5].

As to “CCGATTAACATCAATCGGGAGCGTGATGTTAATCGGGTCTTGATTCGCTTGACGCTGCTG”, the binding signal is 0.333 z-score in test [1]; 0.833 z-score in test [2]; 0.287 z-score in test [3]; -0.316 z-score in test [4]; 0.0987 z-score in test [5].

Turning to “CCGATTAACATCATTCGGCGAGTTGATGTTAATCGGGTCTTGATTCGCTTGACGCTGCTG”, the binding signal is 0.132 z-score in test [1]; -0.377 z-score in test [2]; -0.147 z-score in test [3]; -0.697 z-score in test [4]; -0.533 z-score in test [5].

With “CCGATTAACATCAGATTTATAACTGATGTTAATCGGGTCTTGATTCGCTTGACGCTGCTG”, the binding signal in test [1] was -0.76 z-score; in test [2], -0.391 z-score; in test [3] it was -0.638 z-score; in test [4] it was -0.407 z-score; in test [5] it was -0.573 z-score.

With “CCGATTAACATCAGATGATATCATGATGTTAATCGGGTCTTGATTCGCTTGACGCTGCTG”, the binding signal in test [1] was -0.767 z-score; in test [2] it was -1.09 z-score; in test [3] it was -1.7 z-score; in test [4] it was -0.956 z-score; in test [5], -0.356 z-score.

Consider “CCGATTAACATCATCGCGCGACATGATGTTAATCGGGTCTTGATTCGCTTGACGCTGCTG”, for which the binding signal is -0.197 z-score in test [1]; 0.251 z-score in test [2]; -0.97 z-score in test [3]; -0.673 z-score in test [4]; -0.297 z-score in test [5].

As for “CCGATTAACATCAAAGGTTGCGTTGATGTTAATCGGGTCTTGATTCGCTTGACGCTGCTG”, the binding signal was 0.0555 z-score in test [1]; -0.341 z-score in test [2]; -0.602 z-score in test [3]; -0.664 z-score in test [4]; -0.614 z-score in test [5].

Take “CCGATTAACATCAGGAATTTCAATGATGTTAATCGGGTCTTGATTCGCTTGACGCTGCTG”: the binding signal in test [1] was -0.164 z-score; in test [2], -0.126 z-score; in test [3] it was 0.109 z-score; in test [4], -0.0399 z-score; in test [5], 0.414 z-score.

Turning to “CCGATTAACATCAAGTCCAAGTCTGATGTTAATCGGGTCTTGATTCGCTTGACGCTGCTG”, the binding signal is -0.397 z-score in test [1]; 0.105 z-score in test [2]; -0.0145 z-score in test [3]; -0.681 z-score in test [4]; -0.561 z-score in test [5].

For “CCGATTAACATCAACAAACCATTTGATGTTAATCGGGTCTTGATTCGCTTGACGCTGCTG”, the binding signal was -0.479 z-score in test [1]; -0.129 z-score in test [2]; 0.207 z-score in test [3]; -0.495 z-score in test [4]; -0.328 z-score in test [5].

Take “CCGATTAACATCATTAGTCTCGTTGATGTTAATCGGGTCTTGATTCGCTTGACGCTGCTG”: the binding signal in test [1] was 0.0935 z-score; in test [2], 0.443 z-score; in test [3] it was -0.159 z-score; in test [4], -0.428 z-score; in test [5], -0.537 z-score.

With “CCGATTAACATCATATTTGACACTGATGTTAATCGGGTCTTGATTCGCTTGACGCTGCTG”, the binding signal in test [1] was -0.924 z-score; in test [2] it was -0.217 z-score; in test [3], -0.183 z-score; in test [4], -0.487 z-score; in test [5], -0.316 z-score.

Consider “CCGATTAACATCATCGAGTATTGTGATGTTAATCGGGTCTTGATTCGCTTGACGCTGCTG”, for which the binding signal was -0.591 z-score in test [1]; -1.28 z-score in test [2]; 0.311 z-score in test [3]; -0.159 z-score in test [4]; -0.194 z-score in test [5].

With “CCGATTAACATCAGACATTTTTCTGATGTTAATCGGGTCTTGATTCGCTTGACGCTGCTG”, the binding signal in test [1] is -0.669 z-score; in test [2], -0.275 z-score; in test [3] it was -0.946 z-score; in test [4], -0.173 z-score; in test [5], -0.376 z-score.

As to “CCGATTAACATCAAATTTCCAGGTGATGTTAATCGGGTCTTGATTCGCTTGACGCTGCTG”, the binding signal in test [1] amounted to 0.0388 z-score; in test [2] it was 0.257 z-score; in test [3] it was 0.76 z-score; in test [4], 0.661 z-score; in test [5], 0.752 z-score.

Regarding “CCGATTAACATCAGCTAAGCATGTGATGTTAATCGGGTCTTGATTCGCTTGACGCTGCTG”, the binding signal in test [1] is -0.941 z-score; in test [2] it was -0.418 z-score; in test [3], -0.732 z-score; in test [4], -0.328 z-score; in test [5], -0.213 z-score.

Take “CCGATTAACATCAGTTGCTCTCATGATGTTAATCGGGTCTTGATTCGCTTGACGCTGCTG”: the binding signal in test [1] was -0.232 z-score; in test [2], 0.0371 z-score; in test [3] it was -0.021 z-score; in test [4], -0.766 z-score; in test [5] it was -0.394 z-score.

Take “CCGATTAACATCAAACGAGACTATGATGTTAATCGGGTCTTGATTCGCTTGACGCTGCTG”: the binding signal in test [1] was -0.591 z-score; in test [2], 0.498 z-score; in test [3] it was 0.146 z-score; in test [4], -0.635 z-score; in test [5], -0.499 z-score.

As for “CCGATTAACATCAAGGAAAATTCTGATGTTAATCGGGTCTTGATTCGCTTGACGCTGCTG”, the binding signal was -0.0353 z-score in test [1]; -0.0354 z-score in test [2]; 0.817 z-score in test [3]; 0.286 z-score in test [4]; 0.92 z-score in test [5].

Turning to “CCGATTAACATCACCTTTAGGAGTGATGTTAATCGGGTCTTGATTCGCTTGACGCTGCTG”, the binding signal in test [1] was -0.452 z-score; in test [2] it was -0.813 z-score; in test [3], 0.765 z-score; in test [4], 0.538 z-score; in test [5], 0.378 z-score.
